The campaign covered roughly 52,000 compounds. About 4,300 (8.3%) were called active. Rule as the data show it: active = survival mostly below about 52% (no sharp cut-off); inactive = mostly above about 56%. The list shows a part of the results.

The subject of the test is DeltatarO mutant. The test is described as follows: S. aureus survival, RN4220 and DeltatarO strains – OD600, teichoic acid synthesis inhibitors, primary screen (AID 463173). Particulars: S. aureus RN4220 wild type/DeltatarO growth, OD600, 18 h, stronger effect = lower value, screened at 18.75 µg/mL (by protocol).
As to `CCC(C)NC(=O)C1CCN(C(=O)c2ccc(-n3ccc4ccccc43)s2)CC1` (stereo unspecified), the survival is inactive: 81%.

Take `COc1ccccc1CCNC(=O)Cc1c(C)c2c(cc(C)c3c(C)c(C)oc32)oc1=O`: the survival is inactive: 89%.

For the compound `FC(F)(F)c1cccc(-c2nnn3c2nc(NC2CCCCC2)c2ccccc23)c1`, the survival is active: 13%.

In the case of `Cc1cccc(N2CCN(C(=O)Cn3cnc4sc(C)c(S(=O)(=O)N5CCN(c6ncccn6)CC5)c4c3=O)CC2C)c1` (stereo unspecified), the survival is active: 67%.

As for `CCOc1ccc(S(=O)(=O)c2c[nH]c3ccccc3c2=O)cc1`, the survival was inactive: 85%.

`COc1ccc(CCNC(=O)C2CCN(c3ncnc4c3nc3n4CCCCC3)CC2)c(OC)c1`: the survival is inactive: 82%.

In the case of `Cc1ccccc1C(=O)Nc1ccc2nc(Nc3cccc(C(F)(F)F)c3)cc(C)c2c1`, the survival is inactive: 63%.

Take `CC1CCCN(Cc2nc3c(c(=O)n(C)c(=O)n3C)n2Cc2ccc(Cl)cc2Cl)C1` (stereo unspecified): the survival was inactive: 94%.

As for `NS(=O)(=O)c1ccc(CCNC(=O)c2ccc3nc(Cc4ccccc4)oc3c2)cc1`, the survival was inactive: 92%.

On to `CC(C)(C)C1CCc2c(sc(NC(=O)CCC(=O)O)c2C(=O)Nc2ccccc2C(F)(F)F)C1` (stereo unspecified), for which the survival is active: -6%.

On to `CCCc1cc(=O)oc2cc(C)c3c(-c4cccc(OC)c4)coc3c12`, for which the survival was inactive: 67%.

For the compound `CCOC(=O)c1cccc(NC(=O)N2CC(CC)Sc3ccccc32)c1` (stereo unspecified), the survival was inactive: 82%.

Take `COc1cccc(-c2nc(SCC(=O)NCC3CCCO3)c(-c3ccc(F)cc3)[nH]2)c1` (stereo unspecified): the survival was inactive: 62%.

In the case of `Cc1ccccc1OCC(=O)Nc1ccc(OCc2cc(=O)n3ccsc3n2)cc1`, the survival is inactive: 94%.

For `CCOC(=O)c1cccc(NC(=O)N2CCC(CN3CCc4ccccc4C3)CC2)c1`, the survival was inactive: 72%.

In the case of `FC(F)(F)c1cccc(N2CCN(Cc3nnc(-c4ccc5c(c4)OCO5)o3)CC2)c1`, the survival is inactive: 54%.

For the compound `O=C(Cc1ccc(F)cc1)NCc1nc2cccnc2n1Cc1ccc(F)cc1`, the survival is inactive: 94%.

As to `O=C(Nc1cccc(C(=O)N2CCN(c3ccccc3F)CC2)c1)c1nsc2ccccc12`, the survival was inactive: 70%.

With `COc1ccccc1Nc1c2c(nc3ccc(NC(=O)c4cccc(OC)c4OC)cc13)CCCC2`, the survival is active: 46%.

On to `COC(=O)c1cc2sccc2n1Cc1nc(-c2cccc(Br)c2)oc1C`, for which the survival was inactive: 70%.

As to `O=C(Nc1ccc(C(F)(F)F)cc1)C1CCCN(S(=O)(=O)c2cccc3cccnc23)C1` (stereo unspecified), the survival was inactive: 77%.

Take `COc1ccc(CCNC(=O)c2cnc3sc(N4CCC(C)CC4)nn3c2=O)cc1OC`: the survival was inactive: 75%.

For `CCC1CCCCN1C(=O)CSc1n[nH]c(-c2ccccc2Cl)n1` (stereo unspecified), the survival was inactive: 102%.

Consider `CCN(c1ccc(OC)cc1)S(=O)(=O)c1nnc(NC(=O)c2ccccc2C)s1`, for which the survival was active: 37%.

Consider `NC(=O)C1CCN(Cc2nc3ccccc3c(=O)[nH]2)CC1`, for which the survival is inactive: 71%.

Regarding `COc1cccc(CNC(=O)c2ccc(-c3nc(CS(=O)(=O)c4ccccc4)c(C)o3)cc2)c1`, the survival is inactive: 72%.

Turning to `CN(C)CCNC(=O)CN1C(=O)CCn2nc(-c3cn(C)c4ccccc34)cc21`, the survival is inactive: 96%.

For `CCc1ccc(NC(=O)Cn2ncc3c(C)n(Cc4cccc(Cl)c4)c(C)c3c2=O)cc1`, the survival is inactive: 89%.

With `Cc1cc(C(F)(F)F)nc(SCC(=O)Nc2c(C)n(C)n(-c3ccccc3)c2=O)n1`, the survival was inactive: 118%.

In the case of `CCc1ccccc1Nc1cc(C(=O)NC2CCC(C)CC2)c2ccccc2n1` (stereo unspecified), the survival was inactive: 70%.

Consider `COc1ccc(CNC(=O)c2cc(-c3ccc(C)c(C)c3)n[nH]2)cc1`, for which the survival was inactive: 94%.

With `CCc1c(C)sc(NC(=O)C2c3ccccc3Oc3ccccc32)c1C(=O)OC(C)C`, the survival is active: 41%.

`CCOC(=O)C(=O)Nc1c(C(=O)Nc2cccc(F)c2)oc2ccccc12`: the survival is inactive: 97%.

For the compound `COc1ccccc1N1CCN(c2nc3c(S(=O)(=O)c4ccc(C)c(C)c4)nnn3c3ccc(Cl)cc23)CC1`, the survival is inactive: 81%.

`Cc1cccc(-n2ccnc2SCC(=O)Nc2nc3ccccc3s2)c1`: the survival is inactive: 93%.

Consider `Cc1ccccc1NC(=O)C(NC1CCCCC1)C(C)C` (stereo unspecified), for which the survival is inactive: 79%.

As to `CCN(CCCNC(=O)c1nn(-c2ccc(OC)c(Cl)c2)c(=O)c2c1c1ccccc1n2C)c1cccc(C)c1`, the survival was inactive: 94%.

With `CCOC(=O)c1ccc(NS(=O)(=O)c2cc(Br)cc3c2N(C(C)=O)C(C)C3)cc1` (stereo unspecified), the survival is inactive: 55%.

Regarding `Cc1ccc(Cn2c(CNS(=O)(=O)c3ccc(Cl)s3)nc3cccnc32)cc1`, the survival was inactive: 124%.

As for `Cc1cccc(-c2nc(SCC(=O)NCc3ccco3)c3c(=O)n(C)c(=O)n(C)c3n2)c1`, the survival is inactive: 74%.

Consider `Cc1cc2[nH]c(=O)c(=O)[nH]c2cc1S(=O)(=O)N1CCN(c2cccc(C)c2C)CC1`, for which the survival was inactive: 94%.

As to `Cc1ccc(-c2nnc3ccccc3c2C(=O)Nc2cccc(Cl)c2)cc1`, the survival is inactive: 107%.

As for `Cn1c(=O)c(=O)n(C)c2cc(N3CCOCC3)c(NS(=O)(=O)c3ccc(F)c(Cl)c3)cc21`, the survival is inactive: 67%.

`COc1ccc(NC(=O)c2cc3cc(C)ccc3n2C)cc1`: the survival is inactive: 60%.

On to `N#C/C(C(=O)c1ccccc1)=C1/Nc2ccccc2C1=O`, for which the survival is inactive: 82%.

For `CCOC(=O)c1cccc(NC(=O)C2CCCN(c3nnc(C)c4c(C)n(-c5ccccc5)nc34)C2)c1` (stereo unspecified), the survival was inactive: 94%.

On to `O=C(Nc1cc(Cl)cc(Cl)c1)c1cc(S(=O)(=O)N2CCc3ccccc3C2)ccc1F`, for which the survival is inactive: 94%.

Turning to `COc1ccc(C(=O)Nc2c(C(=O)c3ccccc3)oc3ccccc23)cc1`, the survival was inactive: 72%.

On to `COc1ccc(OC)c(C2C(C(=O)Nc3ccccc3OC)=C(C)Nc3c(C(=O)Nc4ccc(F)cc4)cnn32)c1` (stereo unspecified), for which the survival is inactive: 126%.

For the compound `COc1ccc(C(=O)Nc2nnc(S(=O)(=O)N(CC(C)C)c3ccccc3)s2)cc1`, the survival was inactive: 51%.

Consider `Cc1ccc(Cn2c(C(=O)O)c(CNCc3cccs3)c3ccc(C)cc32)cc1`, for which the survival was active: 48%.

On to `COc1ccc(NC(=O)c2ccc3c(c2)nnn3C2CCCC2)cc1Cl`, for which the survival is inactive: 88%.

`Cc1ccc(Cl)cc1NC(=O)c1ccc2snnc2c1`: the survival was inactive: 127%.

For `COc1cc(NC(=O)NCCn2nnc3cc(S(=O)(=O)N(C)C)ccc32)cc(OC)c1`, the survival was inactive: 90%.

Consider `O=C(O)CCOc1ccc2c(c1)OCCO2`, for which the survival is inactive: 82%.

In the case of `CC(C)(C)OC(=O)N1CCC(c2c(C(=O)NCc3ccc4c(c3)OCO4)cnn2-c2ccccc2Cl)CC1`, the survival was inactive: 60%.

For `Cc1ccc2c(=O)c(C(=O)c3ccc(F)cc3)cn(CC(=O)NCc3ccccc3Cl)c2n1`, the survival was inactive: 90%.

Turning to `Cc1ccc(-c2nn(CC(=O)NC3CCCCC3)c3c2cnc2ccccc23)cc1`, the survival is inactive: 64%.

Consider `Cc1ccc(Cl)cc1N1CCN(C(=O)c2cccn2-c2nnc(N3CCCC3)s2)CC1`, for which the survival was inactive: 101%.

Take `CCN(C(=O)c1cc(S(=O)(=O)N2CCc3ccccc32)cn1C)c1cccc(C)c1`: the survival is inactive: 71%.

With `CC1=C(C(N)=O)C(c2ccc(F)cc2)n2nc(-c3ccc(N(C)C)cc3)nc2N1` (stereo unspecified), the survival is inactive: 74%.

Consider `CNS(=O)(=O)c1cn(CC(=O)Nc2ccc(C)c(N(C)C)c2)cc1S(=O)(=O)NC`, for which the survival is inactive: 83%.

Consider `Cc1ccc(C)c(NC(=O)OCC(C)C)c1`, for which the survival is inactive: 91%.

In the case of `COc1ccc(N2Cc3cccc(C(=O)Nc4ccc(C)c(C)c4)c3C2=O)cc1`, the survival is inactive: 85%.

Turning to `CCc1cccc(N2C(=O)CS(=O)(=O)C23C(=O)N(Cc2ccc(F)cc2)c2ccc(C)cc23)c1` (stereo unspecified), the survival was inactive: 79%.

Regarding `O=C(NCCC1=CCCCC1)c1ccc2c(c1)N(Cc1ccccc1F)C(=O)c1ccccc1S2(=O)=O`, the survival was inactive: 74%.

With `Cc1ccc(NC(=O)CN2C(=O)C(C)(C)c3ccccc32)cc1`, the survival is inactive: 78%.

Regarding `CCOc1ccc(N2CC(NC(=O)Cc3ccccc3)CC2=O)cc1` (stereo unspecified), the survival was inactive: 135%.

As to `O=C(Cc1cccs1)NC1CC(=O)N(c2ccc(Cl)cc2)C1` (stereo unspecified), the survival is inactive: 67%.

Consider `Cc1ccc(-c2nn3c(-c4ccccc4)nnc3c3ccccc23)cc1`, for which the survival is inactive: 86%.

Turning to `CC(C)Sc1ncc(Cl)c(C(=O)N(Cc2ccc(F)cc2)C2CCS(=O)(=O)C2)n1` (stereo unspecified), the survival is inactive: 76%.

`Cc1cccc(C(=O)OCc2cc(=O)n3nc(C4CCCCC4)sc3n2)c1`: the survival was inactive: 78%.

Turning to `O=C(NC1CCCC1)C(c1ccncc1)N(CCCN1CCOCC1)C(=O)c1ccc(-c2ccccc2)[nH]1` (stereo unspecified), the survival was inactive: 76%.

Regarding `Cc1c2cnn(-c3ccccc3)c(=O)c2c(C)n1C(C)C(=O)Nc1ccc(Br)cc1F` (stereo unspecified), the survival was inactive: 89%.

In the case of `CC(C)c1ccc2oc(-c3cccc(NC(=O)c4ccc5c(c4)OCCO5)c3)nc2c1`, the survival is active: 28%.

On to `Cc1ccc(-n2c(SCC(=O)Nc3cccc(F)c3)nc3c(oc4ccccc43)c2=O)cc1C`, for which the survival is inactive: 82%.

As for `Cc1ccc2oc3c(c(=O)c2c1)C(c1cccc(O)c1)N(Cc1ccccc1Cl)C3=O` (stereo unspecified), the survival was inactive: 69%.

For the compound `COc1cccc(NC(=O)C2CCCN2S(=O)(=O)c2ccc3c(c2)C(C)(C)C(=O)N3C)c1` (stereo unspecified), the survival was inactive: 104%.

As for `Cc1cc(C)cc(-n2ccn3c(CC(C)(C)CC(=O)O)nnc3c2=O)c1`, the survival was inactive: 69%.

With `C=CCN1C2=NCCCN2c2ccccc21`, the survival was inactive: 98%.

As for `CCN1c2cc(C)ccc2-n2cccc2C12CCN(C(=O)Nc1cc(OC)c(OC)c(OC)c1)CC2`, the survival was inactive: 93%.

In the case of `COc1ccc(N2CC(NC(=O)COc3ccccc3C)CC2=O)cc1OC` (stereo unspecified), the survival was inactive: 90%.

Take `CCOC(=O)c1c(NC(=O)c2ccc(S(=O)(=O)N3CCCC(C)C3)cc2)sc2c1CCN(C(C)C)C2` (stereo unspecified): the survival was inactive: 75%.

As for `CCOC(=O)c1cc(-c2ccccc2)n(-c2cccc(C(=O)N(CC)c3ccccc3)c2)c1C`, the survival is inactive: 73%.

On to `CCC(OC(=O)c1cc2sccc2n1C(C)C)C(=O)NCc1ccc(OC)cc1` (stereo unspecified), for which the survival is inactive: 58%.

Turning to `Cc1cc(C)cc(NC(=O)C(=O)NC(C)c2ccccc2)c1` (stereo unspecified), the survival was inactive: 69%.

The values above are taken from PubChem BioAssay AID463173 (ICCB-Longwood Screening Facility, Harvard Medical School, 2010).
